{
  "source": "patent US20210070868A1",
  "about": "(VERTICAL BIO, published 2021)",
  "biological_target": "T1, wild-type decoyMET (extracellular portion of human HGFR/MET: SEMA, PSI, IPT-1 to IPT-4) (human, UniProt P08581 25-932)",
  "T1 construct": "Soluble recombinant receptor from HEK-293T cells, purified on HisTrap; also called decoyMET wild type; MET (solid phase in the fusion protein ELISA)",
  "assay": "ELISA, wild-type decoyMET in solid phase, scMvDN30 (0-1000 nM) in liquid phase (FIG. 10B)",
  "procedure": "(A) Binding analysis to HGF by ELISA. Left panel, binding of the fusion proteins containing decoyMET^K842E at the N-terminal and scMvDN30 at the C-terminal. Right panel, binding of the fusion proteins containing scMvDN30 at the N-terminal and decoyMET^K842E at the C-terminal. The fusion proteins or decoyMET^K842E (positive control) were in solid phase. Increasing concentrations of HGF were added in liquid phase. HGF binding was detected using a biotinylated anti-HGF antibody. Each point is the mean of values in triplicate±SD. (B) Binding analysis to MET by ELISA. Left panel, binding of the fusion proteins containing decoyMET^K842E at the N-terminal and scMvDN30 at the C-terminal. Right panel, binding of the fusion proteins containing scMvDN30 at the N-terminal and decoyMET^K842E at the C-terminal. Wild-type decoyMET was in solid phase and increasing concentrations of the different fusion proteins were in liquid phase; as positive control scMvDN30 was included in the assay. Antibody binding was detected using an HRP-conjugated anti-human k chain antibody. OD, optical density at 450 nm. Each point is the mean of values in triplicate±SD. […]\nColorimetric assay was quantified by the multi-label plate reader VICTOR-X4 (Perkin Elmer Instruments INC., Whaltman, Mass.).",
  "data": [
    {"binder": "single chain MvDN30 (anti-HGFR single-chain Fab fragment) (Fab, also called scMvDN30; ScMvDN30) DIVLTQSPASLAVSLGQRATISCKASQSVDYDGGSYMSWFQQRPGQPPKLLISAASNLESGIPARFSGSGSGTDFTLNIHPVEEEDVATYYCQQSYEDPLTFGAGTKVEIKRTVAAPSVFIFPPSDEQLKSGTASVVCLLNNFYPREAKVQWKVDNALQSGNSQESVTEQDSKDSTYSLSSTLTLSKADYEKHKVYACEVTHQGLSSPVTKSFNRGECGGSSGSGSGSTGTSSSGTGTSAGTTGTSASTSGSGSGGGGGSGGGGSAGGTATAGASSGSQLQQPGTELVKPGASVKLSCKASGYTFTSYWIHWVKQRPGQGLEWIGEINPSSGRTNYNEKFKNKVTVTVDKSSTTAYMQLSNLTSEDSAVYYCASRGYWGQGTTLTVSSASTKGPSVFPLAPSSKSTSGGTAALGCLVKDYFPEPVTVSWNSGALTSGVHTFPAVLQSSGLYSLSSVVTVPSSSLGTQTYICNVNHKPSNTKVDKKVEPKSCDKTHTTGTRGAAWSHPQFEKGAAWSHPQFEKGAAWSHPQFEKGAAHHHHHH", "values": [
      {"measurement": "binding result", "result": "binds"}
    ]}
  ]
}
